# Assay results reported in PubChem BioAssay AID485294 (National Center for Advancing Translational Sciences (NCATS), 2010).
# Screen size: about 370,000 compounds; about 150 (0.041%) were called active. This list was built around the results that the source calls inconclusive (neither active nor inactive); the mix of calls is not that of the screen. The call rests on the fitted dose curve; in most records, active means well fitted inhibition curve with a large enough effect; inconclusive means small, poorly fitted or top-dose-only effect; inactive means flat fitted curve, though single readings scatter. No potency is given beside an inconclusive call; the fits are too rough.
# Biological target: Beta-lactamase (Escherichia coli (strain K12)) (UniProt P00811)
# Sequence of UniProt P00811 (P00811 whole entry, looked up): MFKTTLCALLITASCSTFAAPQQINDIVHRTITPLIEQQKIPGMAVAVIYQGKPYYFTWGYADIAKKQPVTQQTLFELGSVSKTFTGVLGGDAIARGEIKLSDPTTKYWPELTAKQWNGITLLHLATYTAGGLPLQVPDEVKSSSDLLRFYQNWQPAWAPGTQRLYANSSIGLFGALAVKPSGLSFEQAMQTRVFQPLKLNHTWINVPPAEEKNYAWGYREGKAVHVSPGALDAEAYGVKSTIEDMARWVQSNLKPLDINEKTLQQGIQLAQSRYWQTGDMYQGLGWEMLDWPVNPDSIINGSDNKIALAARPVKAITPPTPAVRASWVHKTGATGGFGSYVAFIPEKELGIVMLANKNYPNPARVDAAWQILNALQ
# Experiment: qHTS Inhibitors of AmpC Beta-Lactamase (assay with detergent); further: nearly all actives have a fitted effect of over 25% in size
# Conditions: AmpC hydrolysis of nitrocefin, absorbance 480 nm, 0.01% Triton; series mostly up to 114 µM
# Outline: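 20 mM phosphate pH 7.0 + 0.01% (detergent screen) or 0.0001% Triton X-100; 5.3 nM AmpC reagent; cpd preinc 15 min RT; nitrocefin (800 uM stock) to start; A480 q20 s × 4 min; Activity was normalised to no-enzyme and no-compound control wells.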
# Potency means the concentration at half of the fitted maximal effect; tags describe the fitted curve by direction and shape.
row,Compound,Potency
1,CC(=O)c1cccc(N2C(=O)C3C4CCC(C4=C(C)C)C3C2=O)c1 (stereo not drawn),"inconclusive [inhibitor, partial curve, poor fit]"
2,CCCCN(C(=O)c1cc2c(s1)CCC2)c1c(N)n(CC(C)C)c(=O)[nH]c1=O,"inconclusive [inhibitor, partial curve, poor fit]"
3,O=C(NCc1ccco1)C1CCC(CNS(=O)(=O)c2cccc3cccnc23)CC1 (stereo not drawn),"inconclusive [inhibitor, full curve, poor fit]"
4,Cc1cc2c3c(c1)C(C)CC(C)(C)N3C(=O)C2=C(C#N)C#N (stereo not drawn),inactive
5,N#CC(C(=O)NC1CCCCC1)c1nc2ccccc2nc1N1CCOCC1 (stereo not drawn),"inconclusive [inhibitor, full curve, poor fit]"
6,c1ccc(N2CCN(c3nc(NCc4ccco4)c4ccccc4n3)CC2)cc1,"inconclusive [inhibitor, full curve]"
7,CNC(=O)NC(=O)C(C)OC(=O)c1oc2ccccc2c1CSc1ccc(Cl)cc1 (stereo not drawn),"inconclusive [inhibitor, full curve]"
8,C[C@@H](C(=O)Nc1ccc2ccccc2c1)[C@H]1C[C@]1(C)[C@H](NS(=O)(=O)c1ccc(-c2ccccc2)cc1)c1ccccc1,"inconclusive [inhibitor, partial curve, poor fit]"
9,COc1ccc(NC(=O)CCCn2c(=O)c3sccc3n(Cc3ccccc3)c2=O)cc1,inactive
10,CC(C)c1ccc(S(=O)(=O)N2CCN(C(=O)CN3C(=O)NC(C)(c4ccccc4)C3=O)CC2)cc1 (stereo not drawn),"inconclusive [inhibitor, full curve, poor fit]"
11,O=C(O)c1sccc1Oc1ccc(NS(=O)(=O)c2ccc(Cl)cc2)cc1,"inconclusive [inhibitor, partial curve, poor fit]"
12,COc1ccc(Br)cc1C(=O)Nc1cccc(NC(=O)c2ccco2)c1,"inconclusive [inhibitor, partial curve]"
13,CC1CCN(c2nc3nonc3nc2Nc2ccc(F)cc2)CC1,inactive
14,CC12CCC3c4ccc(O)cc4CCC3C1CC(O)C2O (stereo not drawn),"inconclusive [inhibitor, full curve, poor fit]"
15,O=C1c2ccccc2C(=O)c2cc(S(=O)(=O)Nc3ccccc3)ccc21,inactive
16,CCc1cccc(NC(=O)C2CCN(S(=O)(=O)c3cccs3)CC2)c1,"inconclusive [inhibitor, partial curve, poor fit]"
17,CCN(CC)S(=O)(=O)c1cccc(NC(=O)COC(=O)c2n[nH]c(=O)c3ccccc23)c1,inactive
18,COc1ccc(NC(=O)CN(C)C(=O)CN2C(=O)NC3(CCCCC3)C2=O)cc1,"inconclusive [inhibitor, full curve, poor fit]"
19,Cc1cc(C)c(S(=O)(=O)NCC(=O)NCc2ccccn2)c(C)c1,"inconclusive [inhibitor, single point]"
20,CCN(CC)c1ccc(C(=O)N/N=C(\C)c2ccc(O)cc2)cc1,inactive
21,Cc1ccc(-c2cc(-c3coc4ccc(Cl)cc4c3=O)c3c(n2)-c2ccccc2OC3)cc1,inactive
22,Cc1ccc(NC(=O)CCC(=O)c2ccc(Cl)s2)nc1,inactive
23,CCOC(=O)c1nn2c(C(F)(F)F)cc(-c3ccc(OC)cc3)nc2c1Br,"inconclusive [inhibitor, full curve, poor fit]"

row,Compound,Potency
1,CCN(Cc1ccccc1)Cc1c(O)ccc2c(=O)c(-c3ccc(Cl)cc3)coc12,inactive
2,CCC1(c2ccc(F)cc2)NC(=O)N(CC(=O)N2CCN(S(=O)(=O)c3ccc(C)cc3)CC2)C1=O (stereo not drawn),"inconclusive [inhibitor, full curve]"
3,Cn1c(C(=O)N2CCN(Cc3ccc4c(c3)OCO4)CC2)cc2sccc21,"inconclusive [inhibitor, full curve, poor fit]"
4,O=C(COC(=O)c1cc(S(=O)(=O)N2CCOCC2)c(Cl)cc1Cl)Nc1ncc(C(F)(F)F)cc1Cl,"inconclusive [inhibitor, single point]"
5,Cc1cc(=O)n2nc(N3CCC(C(=O)N4CCN(Cc5ccccc5)CC4)CC3)sc2n1,"inconclusive [inhibitor, partial curve]"
6,O=C1CCC(=O)N1OCCCOc1ccc(Br)cc1Cl,"inconclusive [inhibitor, single point]"
7,CC(=O)Nc1ccc(C2C(=O)c3ccccc3C2=O)cc1,inactive
8,O=[N+]([O-])c1ccc(Cl)c(/C=N/n2c(COc3ccccc3)n[nH]c2=S)c1,"inconclusive [inhibitor, full curve, poor fit]"
9,CCOC(=O)c1c(NC(=O)CSc2nc(C)cc(C)c2C#N)sc(C(C)=O)c1C,"inconclusive [inhibitor, partial curve]"
10,CSCCC(NC(N)=O)C(=O)Nc1ccc(C)cc1 (stereo not drawn),"inconclusive [inhibitor, partial curve]"
11,O=C(O)c1ccc(-c2ccccc2)[nH]c1=O,inactive
12,S=C1NNC2(CC3CC2C2CCCC32)NN1 (stereo not drawn),"inconclusive [inhibitor, full curve, poor fit]"
13,COc1ccc(CNc2ncc(-c3ccc(Br)cc3)n2C)cc1OC,inactive
14,COc1ccccc1N(CC(=O)Nc1ccc(S(=O)(=O)N2CCCCC2)cc1)S(C)(=O)=O,"inconclusive [inhibitor, single point]"
15,Cc1ccc(NC(=O)c2cnc(SCC(=O)N3CCOCC3)n(C)c2=O)cc1C,inactive
16,O=C(Nc1ccccc1O)c1cc2cc(Br)ccc2oc1=O,inactive
17,O=C(NCc1ccc2c(c1)OCO2)Nc1cccc(Cl)c1,inactive
18,O=C(CN1CCCN(S(=O)(=O)c2ccc(Br)cc2)CC1)Nc1cccc(C(F)(F)F)c1,inactive
19,N#CC(C#N)=Cc1ccc(OC(=O)c2ccccn2)cc1,inactive
20,Cc1ccc(C)c(NC(=O)C2CCCN(S(=O)(=O)c3c(C)nn(C)c3C)C2)c1 (stereo not drawn),inactive
21,O=C1C2C3C=CC(CC3)C2C(=O)N1c1ccc(F)cc1 (stereo not drawn),"inconclusive [inhibitor, single point]"
22,CCOc1ccc(C(=O)NC(=S)Nc2cccc(NC(=O)c3ccco3)c2)cc1[N+](=O)[O-],"inconclusive [inhibitor, single point]"
23,O=C(Nc1ccc(Cl)c(Cl)c1)N1CCOCC1,inactive

row,Compound,Potency
1,O=C(Nc1c(C(=O)O)[nH]c2ccccc12)NC1CCCCC1,"inconclusive [inhibitor, single point]"
2,CCOc1cc(C2NC(=O)NC(c3ccccc3)=C2C(=O)c2ccccc2)c(Br)cc1OCC(=O)O (stereo not drawn),"inconclusive [inhibitor, partial curve]"
3,CC(=O)c1ccc(NC(=S)NC(=O)c2c(Cl)c(C)nn2C)cc1,"inconclusive [inhibitor, partial curve]"
4,O=C(c1cccc(S(=O)(=O)NCCOc2ccccc2)c1)N1CCN(c2ncccn2)CC1,"inconclusive [inhibitor, full curve, poor fit]"
5,CCCc1nnc(NC(=O)Cc2coc3ccc(C(C)C)cc23)s1,inactive
6,N#Cc1ccccc1NC(=O)CSc1ccc([N+](=O)[O-])cn1,inactive
7,CCOCCOC(=O)CCSc1n[nH]c(=O)[nH]c1=O,"inconclusive [inhibitor, full curve]"
8,CCOCCCNC(=O)C(c1ccc(C)cc1)N(Cc1ccc2c(c1)OCO2)C(=O)CNC(C)=O (stereo not drawn),"inconclusive [inhibitor, partial curve, poor fit]"
9,Cc1cc(C(=O)N2CCCC(N3CCN(c4cccc(Cl)c4)CC3)C2)no1 (stereo not drawn),inactive
10,COc1ccc(C2=CSC3=NCCN23)cc1OC,"inconclusive [inhibitor, full curve, poor fit]"
11,Cc1ccc(COCC(CC(C)C)N2CCN(C(=O)c3cccc(C(F)(F)F)c3)CCC2=O)cc1 (stereo not drawn),"inconclusive [inhibitor, partial curve]"
12,CC(CN1CCCC1)OC(=O)Cc1ccc(Cl)cc1 (stereo not drawn),"inconclusive [inhibitor, single point]"
13,Cc1ccc(S(=O)(=O)NCc2ccccn2)c(C)c1,"inconclusive [inhibitor, full curve, poor fit]"
14,CC1CCCC(C)N1CCNC(=O)Nc1ccc(Cl)cc1 (stereo not drawn),"inconclusive [inhibitor, partial curve]"
15,CC(NC(=O)COC(=O)c1ccc2c(=O)n3c(nc2c1)CCCCC3)c1ccccc1 (stereo not drawn),"inconclusive [inhibitor, full curve, poor fit]"
16,CCc1nc(C)cn1S(=O)(=O)c1ccc(Br)cc1,"inconclusive [inhibitor, full curve, poor fit]"
17,COc1ccc(-n2nc([N+](=O)[O-])c(=NCCc3ccc(C)cc3)n2O)cc1,inactive
18,Cc1ccnc2nc(C(=O)OCC(=O)N3CC(C)CC(C)C3)nn12 (stereo not drawn),"inconclusive [inhibitor, full curve, poor fit]"
19,COc1ccc(-c2nnc3n(CCc4ccccc4)c(=O)c4ccccc4n23)c(OC)c1,inactive
20,C/C(=N/NC(=O)c1cnccn1)c1cccs1,"inconclusive [inhibitor, full curve]"
21,CCOCCn1c(N2CCCC2)nc2c1c(=O)[nH]c(=O)n2C,"inconclusive [inhibitor, partial curve, poor fit]"
22,CCOc1ccc(Cl)cc1S(=O)(=O)NCc1cccnc1,"inconclusive [inhibitor, full curve]"
